# Results as given in the antibiotic and cytotoxicity screens of Wong et al. (2023).
# The other results are listed elsewhere or left out.
# Test system: HSkMC (human skeletal muscle cells)
# Assay: cytotoxicity call (relative viability < 0.9)
# Conditions: 10 µM
row,SMILES,cytotoxicity call
1,C[C@H]1CN([C@@H](C)CO)C(=O)c2cc(NC(=O)Nc3cccc4ccccc34)ccc2O[C@@H]1CN(C)C(=O)Nc1cccc2ccccc12,inactive
2,C[C@H](CO)N1C[C@H](C)[C@@H](CN(C)C(=O)C2CCCCC2)OCCCC[C@H](C)Oc2ccc(NS(=O)(=O)c3ccccc3)cc2C1=O,inactive
3,Cc1ccc(/C=c2\sc3ncnn3c2=O)o1,inactive
4,CNC(=O)C[C@@H]1CC[C@@H]2[C@H](COC[C@H](O)CN2C(=O)c2ccccn2)O1,inactive
5,O=C(CCCl)NCc1ccccc1,inactive
6,C[C@@H]1CN([C@H](C)CO)C(=O)c2c(c3ccccc3n2C)-c2ccccc2CO[C@H]1CN(C)Cc1ccc(Oc2ccccc2)cc1,inactive
7,CCOC(=O)OC(C)OC1=C(C(=O)Nc2ccccn2)N(C)S(=O)(=O)c2ccccc21 (stereo not given),inactive
8,Cc1noc(C)c1S(=O)(=O)Nc1ccc2c(c1)C(=O)N([C@@H](C)CO)C[C@H](C)[C@@H](CN(C)S(=O)(=O)c1cn(C)cn1)OCCCC[C@H](C)O2,inactive
9,C[C@@H]1CN([C@@H](C)CO)C(=O)c2cc(NC(=O)NC3CCCCC3)ccc2O[C@@H](C)CCCCO[C@@H]1CN(C)C(=O)Nc1ccc2c(c1)OCO2,inactive
10,O=C(Nc1ccc2c(c1)[C@H]1C[C@H](CC(=O)N3CCc4ccccc4C3)O[C@@H](CO)[C@H]1O2)C1CCOCC1,inactive
11,COC(=O)/C=C1\N[C@H]2CCCC[C@@H]2NC1=O,inactive
12,C[C@@H]1CN([C@H](C)CO)C(=O)c2cc(NS(=O)(=O)c3ccc(Cl)cc3)ccc2O[C@@H](C)CCCCO[C@@H]1CN(C)C(=O)NC1CCCCC1,inactive
13,C[C@H]1CN([C@@H](C)CO)C(=O)c2cc(NC(=O)Cn3cnnn3)ccc2O[C@H]1CN(C)Cc1ccc(-c2ccccc2)cc1,inactive
14,C[C@@H]1CN([C@@H](C)CO)C(=O)c2cccc(NS(=O)(=O)c3ccccc3)c2O[C@@H]1CN(C)S(C)(=O)=O,inactive
15,Cc1cccc(-c2nc3ccccc3n2CCC(C)C)c1,inactive
16,COCCNC(=O)C[C@H]1CC[C@H](NS(=O)(=O)c2ccc(C)cc2)[C@H](CO)O1,inactive
17,Cc1nn(C)c(Cl)c1S(=O)(=O)NC(=O)[C@@]1(C)CCN1C(=O)c1ccccc1CCc1ccccc1,inactive
18,Cc1noc(C)c1S(=O)(=O)Nc1cccc2c1O[C@H](CN(C)S(=O)(=O)c1cn(C)cn1)[C@H](C)CN([C@@H](C)CO)C2=O,inactive
19,C[C@@H]1CN([C@H](C)CO)C(=O)CCCn2cc(nn2)CO[C@@H]1CN(C)S(=O)(=O)c1ccccc1C#N,inactive
20,O=C(NCCCN1CCOCC1)[C@@H]1[C@@H](CO)[C@@H]2Cn3c(ccc(C4=CCCCC4)c3=O)[C@H]1N2,inactive

row,SMILES,cytotoxicity call
1,COC(=O)CCCCCCC(=O)NN,inactive
2,C[C@H]1CN([C@@H](C)CO)C(=O)c2cccc(NC(=O)c3ccc(-c4nccs4)cc3)c2O[C@H]1CN(C)CC1CCCCC1,inactive
3,CC1(C)C=C(C(=O)N2CCOCC2)C(C)(C)N1,inactive
4,C[C@@H]1CCCCO[C@H](CN(C)C(=O)Nc2ccc3c(c2)OCO3)[C@H](C)CN([C@H](C)CO)C(=O)c2cc(NC(=O)NC3CCCCC3)ccc2O1,inactive
5,COc1ccc2c3c(n(c2c1)C)[C@H](CO)N(C[C@]13CCN(CC1)C(=O)c1ccccc1)C(=O)Nc1ccccc1F,active
6,C[C@@H]1CN([C@H](C)CO)C(=O)c2c(c3ccccc3n2C)-c2ccccc2CO[C@H]1CN(C)C(=O)N[C@H](C)c1ccccc1,inactive
7,COc1ccc(S(=O)(=O)N(C)C[C@@H]2OCCCC[C@H](C)Oc3ccc(NS(C)(=O)=O)cc3C(=O)N([C@@H](C)CO)C[C@H]2C)cc1,inactive
8,CCC(=O)N(C)C[C@H]1Oc2ncc(C#C[C@@H](C)O)cc2C(=O)N([C@H](C)CO)C[C@@H]1C,inactive
9,C=CCNC(=O)[C@@H]1[C@H]2C(=O)O[C@H](c3ccccc3)[C@H](c3ccccc3)N2[C@H](c2ccccc2OCCO)[C@@]12C(=O)Nc1ccc(C#CC3=CCCCC3)cc12,active
10,CCCCCN1CC=C[C@@]23O[C@@H]4C=CCOC(=O)[C@@H]4[C@H]2C(=O)N(CCCO)[C@@H]3C1=O,inactive
11,C=CCNC1=C2C[C@H](C)C[C@H](OC)[C@@H](O)[C@H](C)/C=C(\C)[C@H](OC(N)=O)[C@H](OC)/C=C/C=C(\C)C(=O)NC(=CC1=O)C2=O,active
12,Cc1ccc(S(=O)(=O)Nc2ccc3c(c2)CC(=O)N([C@@H](C)CO)C[C@@H](C)[C@@H](CN(C)C(=O)Nc2ccc(C(F)(F)F)cc2)O3)cc1,inactive
13,COc1ccccc1CNC(=O)C[C@H]1CC[C@@H]2[C@H](COC[C@H](O)CN2C(=O)Nc2ccc(F)cc2)O1,inactive
14,C/C=C/c1cccc(-c2nc(C(=O)NCc3ccc(OC)cc3)cc3c2[C@@H](CCO)N([S@](=O)C(C)(C)C)C3)c1,inactive
15,Cc1noc(C)c1NC(=O)Nc1ccc2c(c1)C(=O)N([C@@H](C)CO)C[C@@H](C)[C@H](CN(C)S(=O)(=O)c1ccccc1)OCCCC[C@H](C)O2,inactive
16,C[C@H](CO)N1C[C@H](C)[C@H](CN(C)Cc2ccc(F)cc2)OCc2ccccc2-c2c(n(C)c3ccccc23)C1=O,inactive
17,COc1ccc(NC(=O)N(C)C[C@H]2Oc3c(NC(=O)c4cnccn4)cccc3C(=O)N([C@H](C)CO)C[C@@H]2C)cc1,inactive
18,C[C@@H]1CN([C@H](C)CO)S(=O)(=O)c2ccc(C#CC3CC3)cc2O[C@@H]1CN(C)Cc1ccc(F)cc1,inactive
19,CCn1c(-c2nonc2N)nc2cncc(C(=O)N3CC[C@H](N)C3)c21,active
20,N#CCOc1cccc2ccccc12,inactive
